The record followed here is the supplement of paper PMC9446081.

Out of some 39,000 compounds screened, about 220 (0.56%) showed activity. This is one part of the list.
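Also: static incubation at 37 °C against the wild-type strain, values averaged over two biological replicates.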

The subject of this test is Escherichia coli K-12 BW25113. Description: relative growth (OD600 normalised to plate interquartile mean) (fraction); higher = less growth inhibition, active = 0.2 or less. The following applies: 50 µM; LB; incubation time: overnight (16-24 h).
With `NCC(=O)Nc1nccs1`, the relative growth was inactive: 0.948.
In the case of `CN1CCN(CCO)C(=O)C12CCN([C@H]1CCOC1)CC2` it was inactive: 1.01; in that of `C[C@H](CO)N1C[C@H](C)[C@@H](CN(C)C(=O)Nc2ccc(F)cc2)Oc2ccc(NC(=O)Cn3cnnn3)cc2C1=O`, inactive: 1.01.
`C[C@@H]1CN([C@@H](C)CO)C(=O)c2cc(NS(C)(=O)=O)ccc2O[C@@H]1CN(C)Cc1ccc2c(c1)OCO2`: the relative growth was inactive: 1.01.
Consider `COc1cccc(-c2cn(CC[C@H]3CC[C@H](NC(=O)CN(C)C)[C@@H](CO)O3)nn2)c1`, for which the relative growth is inactive: 0.976.
In the case of `Cc1ccc(S(=O)(=O)N(C)C[C@@H]2Oc3ncc(C#CC4(O)CCCC4)cc3C(=O)N([C@H](C)CO)C[C@H]2C)cc1` it was inactive: 1.05; in that of `COCC#Cc1ccc2c(c1)O[C@H](CN(C)Cc1ccccc1F)[C@H](C)CN([C@@H](C)CO)S2(=O)=O`, inactive: 1.05.
Next, `COc1ccc([C@H]2C/C=C\C[C@H](c3cccc(Cl)c3)NC(=O)[C@@H](c3ccccc3)CC(=O)N2)c(OC)c1`: inactive: 0.99; `Cc1noc(C)c1NC(=O)Nc1ccc2c(c1)C(=O)N([C@H](C)CO)C[C@H](C)[C@@H](CN(C)S(=O)(=O)c1ccccc1)OCCCC[C@H](C)O2`: inactive: 0.985; `C[N+](C)(C)C[C@H](O)CC(=O)O`: inactive: 0.956.
With `COCC(=O)N(C)C[C@H]1Oc2cc(C#Cc3ccccc3)ccc2S(=O)(=O)N([C@H](C)CO)C[C@@H]1C`, the relative growth is inactive: 1.02.
In the case of `CC(C)c1nc(N(C)S(C)(=O)=O)nc(-c2ccc(F)cc2)c1C=CC(O)CC(O)CC(=O)[O-].[Ca+2]` (configuration not stated) it was inactive: 0.985; in that of `O=C(/C=C/c1ccc(CNc2ccc([C@H]3O[C@@H](CSc4ccncc4)C[C@H](c4ccccc4)O3)cc2)cc1)NO`, inactive: 0.976.
`Nc1cnc2ccc(Cl)nn12`: the relative growth was inactive: 1.01.
For the compound `C[C@H]1CN([C@@H](C)CO)C(=O)c2cc(NC(=O)Cc3ccccc3)ccc2O[C@H]1CN(C)C(=O)Nc1ccc(C(F)(F)F)cc1`, the relative growth was inactive: 0.984.
In the case of `C[C@H](CO)N1C[C@H](C)[C@@H](CN(C)Cc2ccc(Oc3ccccc3)cc2)Oc2ccc(NC(=O)CCC(F)(F)F)cc2C1=O` it was inactive: 0.997; in that of `C[C@@H]1CN([C@H](C)CO)S(=O)(=O)c2ccc(C#CCN(C)C)cc2O[C@@H]1CN(C)S(=O)(=O)c1cccc(F)c1`, inactive: 1.
Turning to `CN(C)C(=O)C[C@@H]1CC[C@H]2[C@@H](COc3ccc(NS(=O)(=O)c4cccc(F)c4)cc3C(=O)N2C)O1`, the relative growth is inactive: 0.975.
In the case of `Cc1noc(C)c1S(=O)(=O)Nc1cccc2c1O[C@H](CN(C)S(=O)(=O)c1ccc(Cl)cc1)[C@H](C)CN([C@@H](C)CO)C2=O` it was inactive: 0.998; in that of `COc1ccc(S(=O)(=O)Nc2ccc3c(c2)C(=O)N([C@@H](C)CO)C[C@@H](C)[C@H](CN(C)C(=O)CCC(F)(F)F)OCCCC[C@@H](C)O3)cc1`, inactive: 0.988.
For the compound `C[C@@H]1CCCCO[C@@H](CN(C)C(=O)CCCN(C)C)[C@H](C)CN([C@H](C)CO)C(=O)c2cc(NC(=O)Nc3cccc4ccccc34)ccc2O1`, the relative growth was inactive: 0.996.
For the compound `COc1ccc(NC(=O)Nc2ccc3c(c2)C(=O)N([C@@H](C)CO)C[C@@H](C)[C@@H](CN(C)C(=O)Nc2ccc(OC)cc2)OCCCC[C@H](C)O3)cc1`, the relative growth was inactive: 1.
Next, `CO[C@@H](CN(C)S(=O)(=O)c1ccc(C)cc1)[C@H](C)CN([C@@H](C)CO)S(=O)(=O)c1cccc(Cl)c1`: inactive: 1.04; `CC[C@@H](O)CNNC(=O)OC(C)(C)C`: inactive: 0.992.
Next, `CN(C)CCCCNC(=O)[C@@H]1C[C@@H]2C(=O)N[C@@H](CCCCN(C)C)C(=O)N2[C@@H]1c1cccc(OCCO)c1`: inactive: 0.998; `Cl.N=C(N)n1cccn1`: active: 0.042; `COc1ccc(NC(=O)Nc2cccc3c2O[C@@H](CN(C)C(=O)Nc2ccc(C(F)(F)F)cc2)[C@H](C)CN([C@@H](C)CO)C3=O)cc1`: inactive: 0.87.
As for `O=C(NCC(=O)N1CC[C@H](N[C@H]2CC[C@@](O)(c3ccc(-c4ncccn4)cn3)CC2)C1)c1cccc(C(F)(F)F)c1`, the relative growth was inactive: 1.05.
Consider `COc1ccc(NC(=O)Nc2ccc3c(c2)C(=O)N([C@@H](C)CO)C[C@H](C)[C@H](CN(C)C(=O)Nc2ccc(OC)cc2)OCCCC[C@@H](C)O3)cc1`, for which the relative growth is inactive: 1.01.
In the case of `COc1ccc(CN(C)C[C@H]2OCCCC[C@@H](C)Oc3ccc(NC(=O)Nc4ccc5c(c4)OCO5)cc3C(=O)N([C@H](C)CO)C[C@@H]2C)cc1` it was inactive: 1; in that of `CC(C)CC#Cc1cnc2c(c1)C(=O)N([C@H](C)CO)C[C@H](C)[C@@H](CN(C)C(=O)CN1CCOCC1)O2`, inactive: 0.963; in that of `COc1cc(O)cc(O)c1C(=O)c1ccccc1`, inactive: 0.746.
For `O=C(O)/C=C/c1cnc[nH]1`, the relative growth was inactive: 0.986.
In the case of `COc1ccc(S(=O)(=O)N(C)C[C@H]2Oc3ccc(NC(=O)CCN4CCOCC4)cc3C(=O)N([C@H](C)CO)C[C@@H]2C)cc1` it was inactive: 0.978.
Regarding `C[C@H]1CN([C@@H](C)CO)C(=O)Cc2cc(NS(=O)(=O)c3cn(C)cn3)ccc2O[C@H]1CN(C)S(=O)(=O)c1ccc(Cl)cc1`, the relative growth is inactive: 1.
In the case of `CC(=O)N(C)C[C@H]1Oc2ncc(C#CC(C)(C)O)cc2C(=O)N([C@@H](C)CO)C[C@@H]1C` it was inactive: 0.983.
As for `Cc1cc(C(=O)Nc2cccc3c2O[C@@H](CN(C)Cc2ccc(Oc4ccccc4)cc2)[C@H](C)CN([C@H](C)CO)C3=O)n(C)n1`, the relative growth is inactive: 1.
In the case of `COc1ccc(CN(C)C[C@H]2OCCCC[C@H](C)Oc3ccc(NS(=O)(=O)c4c(C)noc4C)cc3C(=O)N([C@H](C)CO)C[C@@H]2C)cc1` it was inactive: 1.02; in that of `CN(C)CCN1CCc2ncc(Cn3cncn3)n2CC1`, inactive: 0.99.
For the compound `CC(C)CC#Cc1ccc2c(c1)O[C@@H](CN(C)CC1CCOCC1)[C@@H](C)CN([C@@H](C)CO)S2(=O)=O`, the relative growth was inactive: 1.01.
As to `CC(C)(C)[S@@](=O)N1Cc2cc(C(=O)N3CCCCC3)nc(-c3cccc(-c4cccc(C#N)c4)c3)c2[C@H]1CCO`, the relative growth was inactive: 1.01.
In the case of `O=C(C[C@H]1C[C@H]2c3cc(NS(=O)(=O)c4ccc(F)cc4)ccc3O[C@H]2[C@H](CO)O1)NCc1cccc(F)c1` it was inactive: 1.01; in that of `C[C@@H]1CN([C@@H](C)CO)C(=O)c2cccc(NC(=O)c3cnccn3)c2O[C@@H]1CN(C)Cc1ccccc1`, inactive: 0.99.
Next, `C[C@H]1CN([C@@H](C)CO)C(=O)c2cc(NC(=O)Cn3cnnn3)ccc2O[C@@H]1CN(C)C(=O)Nc1ccc2c(c1)OCO2`: inactive: 0.991.
Regarding `CCOC(=O)[C@H]1C/C=C/C[C@H](C(=O)OCC)C(=O)O[C@H]2[C@@H](OC)O[C@H](CO)[C@@H](OC(=O)Nc3ccc(OC)cc3)[C@@H]2OC1=O`, the relative growth is inactive: 1.03.
As to `C[C@H]1CN([C@@H](C)CO)C(=O)Cc2cc(NC(=O)Nc3ccc(C(F)(F)F)cc3)ccc2O[C@@H]1CN(C)Cc1ccc(Cl)c(Cl)c1`, the relative growth is inactive: 0.979.
In the case of `COC(=O)C[C@@H]1CC[C@@H]2[C@@H](COc3ccc(NS(=O)(=O)c4ccccc4Cl)cc3C(=O)N2C)O1` it was inactive: 1.03; in that of `CC(C)CS(=O)(=O)N1CCC2(CC1)[C@H]1CN(c3ncccn3)C[C@@H]1C(=O)N2C`, inactive: 0.985; in that of `COc1cc(/C=C/C(=O)CC2=N/C(=N/CCc3ccccc3)S[C@H](c3ccc(O)c(OC)c3)C2)ccc1O`, inactive: 1.03.
In the case of `C[Si](C)(C)C#CC(=O)NO` it was inactive: 0.998; in that of `C[C@H](CO)N1C[C@H](C)[C@@H](CN(C)C(=O)Nc2ccc3c(c2)OCO3)OCCCC[C@H](C)Oc2ccc(NC(=O)CCC(F)(F)F)cc2C1=O`, inactive: 1.
In the case of `Cn1cnc(S(=O)(=O)N[C@H]2CC[C@@H](CC(=O)Nc3ccccc3)O[C@H]2CO)c1` it was inactive: 1.02.
Regarding `COc1ccc(S(=O)(=O)Nc2ccc3c(c2)C(=O)N([C@H](C)CO)C[C@@H](C)[C@H](CN(C)C(=O)Nc2ccc(F)cc2)OCCCC[C@H](C)O3)cc1`, the relative growth is inactive: 1.03.
For the compound `C[C@H]1CN([C@@H](C)CO)C(=O)c2cc(NS(=O)(=O)c3cn(C)cn3)ccc2O[C@@H]1CN(C)S(=O)(=O)c1cccs1`, the relative growth is inactive: 0.979.
In the case of `C[C@H](CO)N1C[C@H](C)[C@@H](CN(C)S(=O)(=O)c2cn(C)cn2)Oc2c(NC(=O)C3CCCCC3)cccc2C1=O` it was inactive: 1.03; in that of `COC[C@H]1CNN1C(=O)Nc1c(C)noc1C`, inactive: 1.02.
In the case of `C=CCN1C(=O)[C@@]2(O[C@H](CCOC(=O)NCCCCCC(=O)NO)[C@@H]([Si](C)(C)c3ccc(OC)cc3)[C@@H]2C)c2cc(I)ccc21` it was inactive: 1.03; in that of `Cc1ccc(S(=O)(=O)Nc2ccc3c(c2)C(=O)N(C)[C@@H]2CC[C@@H](CC(=O)NCCc4ccncc4)O[C@@H]2CO3)cc1`, inactive: 0.993; in that of `C[C@H]1CCCCO[C@H](CN(C)Cc2ccc(C(=O)O)cc2)[C@@H](C)CN([C@@H](C)CO)C(=O)c2cc(NS(=O)(=O)c3ccc(Cl)cc3)ccc2O1`, inactive: 1.01.
In the case of `COc1cccc(CNC(=O)C[C@@H]2CC[C@H]3[C@@H](COC[C@H](O)CN3S(=O)(=O)c3ccc(C)cc3)O2)c1`, the relative growth was inactive: 0.983.
Next, `COc1ccc(CN(C)C[C@@H]2OCCCC[C@@H](C)Oc3ccc(NC(=O)Nc4ccccc4)cc3C(=O)N([C@H](C)CO)C[C@H]2C)cc1`: inactive: 0.998.
In the case of `Cc1noc(C)c1NC(=O)N(C)C[C@@H]1OCCCC[C@H](C)Oc2ccc(NS(=O)(=O)c3cccs3)cc2C(=O)N([C@H](C)CO)C[C@@H]1C`, the relative growth was inactive: 1.01.
